Positions count from the first letter of the chain named. This is one part of the list.
T1: RBFOX1 RRM (Homo sapiens, UniProt Q9NWB1 109-208)
T1 sequence: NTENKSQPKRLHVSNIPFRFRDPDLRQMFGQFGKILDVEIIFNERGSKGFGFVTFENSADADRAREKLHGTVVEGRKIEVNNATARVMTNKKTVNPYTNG

B1: CACCCUC (DNA:RNA)
RNA: GGGAGACCGGAAUUCAGAUUGUCCCACCCUCUUAAAUCCCGUCGUAGCCACCA
DNA 1: CAATCTGAATTCCGGTCTCCC
DNA 2: TGGTGGCTACGACGGGATT
B2: UUAGUCA (DNA:RNA)
RNA: GGGAGACCGGAAUUCAGAUUGUCCUUAGUCAUUAAAUCCCGUCGUAGCCACCA
DNA 1: CAATCTGAATTCCGGTCTCCC
DNA 2: TGGTGGCTACGACGGGATT
B3: ACAUGUU (DNA:RNA)
RNA: B1 RNA with C25A, A26C, C27A, C28U, C29G, C31U
DNA 1: CAATCTGAATTCCGGTCTCCC
DNA 2: TGGTGGCTACGACGGGATT
B4: AACCGGA (DNA:RNA)
RNA: B1 RNA with C25A, C29G, U30G, C31A
DNA 1: CAATCTGAATTCCGGTCTCCC
DNA 2: TGGTGGCTACGACGGGATT
B5: AGUGGAU (DNA:RNA)
RNA: B2 RNA with U25A, U26G, A27U, U29G, C30A, A31U
DNA 1: CAATCTGAATTCCGGTCTCCC
DNA 2: TGGTGGCTACGACGGGATT
B6: UAAACAC (DNA:RNA)
RNA: B1 RNA with C25U, C27A, C28A, U30A
DNA 1: CAATCTGAATTCCGGTCTCCC
DNA 2: TGGTGGCTACGACGGGATT
B7: GGCUGAU (DNA:RNA)
RNA: B1 RNA with C25G, A26G, C28U, C29G, U30A, C31U
DNA 1: CAATCTGAATTCCGGTCTCCC
DNA 2: TGGTGGCTACGACGGGATT
B8: AGGUAGU (DNA:RNA)
RNA: GGGAGACCGGAAUUCAGAUUGUCCAGGUAGUUUAAAUCCCGUCGUAGCCACCA
DNA 1: CAATCTGAATTCCGGTCTCCC
DNA 2: TGGTGGCTACGACGGGATT
B9: CGGUUUU (DNA:RNA)
RNA: B8 RNA with A25C, A29U, G30U
DNA 1: CAATCTGAATTCCGGTCTCCC
DNA 2: TGGTGGCTACGACGGGATT
B10: AAACGCA (DNA:RNA)
RNA: B2 RNA with U25A, U26A, G28C, U29G
DNA 1: CAATCTGAATTCCGGTCTCCC
DNA 2: TGGTGGCTACGACGGGATT
B11: GAUCGAC (DNA:RNA)
RNA: B1 RNA with C25G, C27U, C29G, U30A
DNA 1: CAATCTGAATTCCGGTCTCCC
DNA 2: TGGTGGCTACGACGGGATT
B12: AUCAGUG (DNA:RNA)
RNA: B1 RNA with C25A, A26U, C28A, C29G, C31G
DNA 1: CAATCTGAATTCCGGTCTCCC
DNA 2: TGGTGGCTACGACGGGATT
B13: AUGAUUC (DNA:RNA)
RNA: B8 RNA with G26U, U28A, A29U, G30U, U31C
DNA 1: CAATCTGAATTCCGGTCTCCC
DNA 2: TGGTGGCTACGACGGGATT
B14: CUGCGUU (DNA:RNA)
RNA: B1 RNA with A26U, C27G, C29G, C31U
DNA 1: CAATCTGAATTCCGGTCTCCC
DNA 2: TGGTGGCTACGACGGGATT
B15: UGAGUCA (DNA:RNA)
RNA: B2 RNA with U26G
DNA 1: CAATCTGAATTCCGGTCTCCC
DNA 2: TGGTGGCTACGACGGGATT
B16: UAGACCC (DNA:RNA)
RNA: B1 RNA with C25U, C27G, C28A, U30C
DNA 1: CAATCTGAATTCCGGTCTCCC
DNA 2: TGGTGGCTACGACGGGATT
B17: AUGCGUA (DNA:RNA)
RNA: B8 RNA with G26U, U28C, A29G, G30U, U31A
DNA 1: CAATCTGAATTCCGGTCTCCC
DNA 2: TGGTGGCTACGACGGGATT
B18: CUCAAAC (DNA:RNA)
RNA: B1 RNA with A26U, C28A, C29A, U30A
DNA 1: CAATCTGAATTCCGGTCTCCC
DNA 2: TGGTGGCTACGACGGGATT
B19: AAUAGCG (DNA:RNA)
RNA: B8 RNA with G26A, G27U, U28A, A29G, G30C, U31G
DNA 1: CAATCTGAATTCCGGTCTCCC
DNA 2: TGGTGGCTACGACGGGATT
B20: CUGAAUA (DNA:RNA)
RNA: B8 RNA with A25C, G26U, U28A, G30U, U31A
DNA 1: CAATCTGAATTCCGGTCTCCC
DNA 2: TGGTGGCTACGACGGGATT
B21: CUGGUCA (DNA:RNA)
RNA: B2 RNA with U25C, A27G
DNA 1: CAATCTGAATTCCGGTCTCCC
DNA 2: TGGTGGCTACGACGGGATT
B22: AGAUAAG (DNA:RNA)
RNA: B8 RNA with G27A, G30A, U31G
DNA 1: CAATCTGAATTCCGGTCTCCC
DNA 2: TGGTGGCTACGACGGGATT
B23: ACUCUAG (DNA:RNA)
RNA: B8 RNA with G26C, G27U, U28C, A29U, G30A, U31G
DNA 1: CAATCTGAATTCCGGTCTCCC
DNA 2: TGGTGGCTACGACGGGATT
B24: GAGACGC (DNA:RNA)
RNA: B1 RNA with C25G, C27G, C28A, U30G
DNA 1: CAATCTGAATTCCGGTCTCCC
DNA 2: TGGTGGCTACGACGGGATT
B25: GCUUGAU (DNA:RNA)
RNA: B8 RNA with A25G, G26C, G27U, A29G, G30A
DNA 1: CAATCTGAATTCCGGTCTCCC
DNA 2: TGGTGGCTACGACGGGATT
B26: UUGCACU (DNA:RNA)
RNA: B8 RNA with A25U, G26U, U28C, G30C
DNA 1: CAATCTGAATTCCGGTCTCCC
DNA 2: TGGTGGCTACGACGGGATT
B27: ACCCCAA (DNA:RNA)
RNA: B1 RNA with C25A, A26C, U30A, C31A
DNA 1: CAATCTGAATTCCGGTCTCCC
DNA 2: TGGTGGCTACGACGGGATT
B28: CGAACCG (DNA:RNA)
RNA: B1 RNA with A26G, C27A, C28A, U30C, C31G
DNA 1: CAATCTGAATTCCGGTCTCCC
DNA 2: TGGTGGCTACGACGGGATT
B29: UACGCGU (DNA:RNA)
RNA: B1 RNA with C25U, C28G, U30G, C31U
DNA 1: CAATCTGAATTCCGGTCTCCC
DNA 2: TGGTGGCTACGACGGGATT
B30: AACCUGG (DNA:RNA)
RNA: B1 RNA with C25A, C29U, U30G, C31G
DNA 1: CAATCTGAATTCCGGTCTCCC
DNA 2: TGGTGGCTACGACGGGATT
B31: UCAAUGU (DNA:RNA)
RNA: B2 RNA with U26C, G28A, C30G, A31U
DNA 1: CAATCTGAATTCCGGTCTCCC
DNA 2: TGGTGGCTACGACGGGATT

molecular target: T1, RBFOX1 RRM; experiment: EMSA; HiTS-Eq, 1 nM pool, 10 min; buffer printed only for the single-RNA assays: 10 mM Tris pH 7.5, 150 mM NaCl, 3.4 mM EDTA, 0.001% NP-40, 30 C; details: tags: His6 N-terminal (pET28a); label: 5' 32P
Method in brief: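 Purified RbFox RRM, wild type or mutant, was incubated for 10 min in 50 µL with 1 nM of a 5′-radiolabelled RNA pool carrying 7 randomized nucleotides, whose flanks were annealed to DNA oligonucleotides, over a series of increasing protein concentrations. Unbound RNA was resolved on 8% native PAGE, cut out, reverse-transcribed, barcoded by PCR and sequenced on an Illumina HiSeq 2500. Relative association constants were derived from changes in read counts for each RNA species versus the control reaction and normalised to the cognate motif.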

Binder | binding signal
B1 | 0.00232 KA relative to UGCAUGU
B2 | 0.00946 KA relative to UGCAUGU
B3 | 0.00357 KA relative to UGCAUGU
B4 | 0.00248 KA relative to UGCAUGU
B5 | 0.00554 KA relative to UGCAUGU
B6 | 0.000762 KA relative to UGCAUGU
B7 | 0.0209 KA relative to UGCAUGU
B8 | 0.0106 KA relative to UGCAUGU
B9 | 0.0157 KA relative to UGCAUGU
B10 | 0.00682 KA relative to UGCAUGU
B11 | 0.0165 KA relative to UGCAUGU
B12 | 0.00865 KA relative to UGCAUGU
B13 | 0.0121 KA relative to UGCAUGU
B14 | 0.0126 KA relative to UGCAUGU
B15 | 0.0145 KA relative to UGCAUGU
B16 | 0.00493 KA relative to UGCAUGU

Binder | binding signal
B17 | 0.0103 KA relative to UGCAUGU
B18 | 0.00277 KA relative to UGCAUGU
B19 | 0.00691 KA relative to UGCAUGU
B20 | 0.00691 KA relative to UGCAUGU
B21 | 0.0175 KA relative to UGCAUGU
B22 | 0.0073 KA relative to UGCAUGU
B23 | 0.00253 KA relative to UGCAUGU
B24 | 0.0106 KA relative to UGCAUGU
B25 | 0.0264 KA relative to UGCAUGU
B26 | 0.021 KA relative to UGCAUGU
B27 | 0.000575 KA relative to UGCAUGU
B28 | 0.00395 KA relative to UGCAUGU
B29 | 0.0119 KA relative to UGCAUGU
B30 | 0.00933 KA relative to UGCAUGU
B31 | 0.00747 KA relative to UGCAUGU

— paper PMC9911399, “Two distinct binding modes provide the RNA-binding protein RbFox with extraordinary sequence specificity”
